From PubChem BioAssay AID1030 (National Center for Advancing Translational Sciences (NCATS), 2008)
Values joined by “and” are separate entries in the source; they are usually repeats but may differ in a detail not shown here. Equal entries are not always repeated. About 16,000 (7.3%) of roughly 220,000 compounds were called active. The shares of active, inactive and inconclusive entries below differ from those in the screen. Calls follow the shape of the dose curve; as a rule, active = well fitted inhibition curve with a large enough effect (not every such curve was filed as active); inconclusive = small, poorly fitted or top-dose-only effect, or another doubt; inactive = no such curve, though single readings can be large or run the other way. Potencies of inconclusive entries are doubtful fits and often do not repeat. Some compounds were tested as several samples or in several runs, with calls that do not always agree.

biological target: Aldehyde dehydrogenase 1A1 (Homo sapiens) (UniProt P00352); experiment: qHTS Assay for Inhibitors of Aldehyde Dehydrogenase 1 (ALDH1A1); conditions: Purified ALDH1A1, NADH fluorescence, propionaldehyde substrate; series mostly up to 75.3 µM;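 as to activity, negative = inhibition: plate controls were no enzyme wells and a reference inhibitor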
Potency is read from the fitted curve at half-maximal effect; tags tell the direction and shape of the fitted curve.

Chain of UniProt P00352 (P00352 whole entry, looked up): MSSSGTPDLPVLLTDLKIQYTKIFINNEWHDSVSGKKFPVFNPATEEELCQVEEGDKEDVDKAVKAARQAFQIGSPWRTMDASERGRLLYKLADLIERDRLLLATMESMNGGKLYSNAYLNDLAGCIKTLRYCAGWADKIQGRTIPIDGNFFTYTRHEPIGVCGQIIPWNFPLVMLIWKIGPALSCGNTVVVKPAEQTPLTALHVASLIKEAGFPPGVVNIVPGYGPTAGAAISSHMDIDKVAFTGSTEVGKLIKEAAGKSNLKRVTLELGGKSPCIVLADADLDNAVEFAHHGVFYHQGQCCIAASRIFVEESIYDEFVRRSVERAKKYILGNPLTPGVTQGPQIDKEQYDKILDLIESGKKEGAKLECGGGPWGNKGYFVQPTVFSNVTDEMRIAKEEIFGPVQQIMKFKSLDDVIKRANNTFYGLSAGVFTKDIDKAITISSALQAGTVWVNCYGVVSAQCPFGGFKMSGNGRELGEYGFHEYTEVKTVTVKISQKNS

| Structure (SMILES) | Potency | activity, negative = inhibition |
| --- | --- | --- |
| COc1ccc(CCC(=O)N2CCC3(CC2)OCCO3)cc1 | inconclusive: 31.6 µM [inhibitor, single point] | – |
| OC[P+](CO)(CO)CO | inactive | – |
| CC(CO)NC(=O)C1C=C2c3cccc4[nH]cc(c34)CC2N(C)C1 (centres undefined) | inconclusive: 31.6 µM [inhibitor, partial curve] | – |
| COC(=O)c1cc2c(cn1)[nH]c1ccccc12 | inconclusive: 28.2 µM [inhibitor, single point] and inconclusive: 39.8 µM [inhibitor, single point] | – |
| CCOC(=O)c1c(C)[nH]c(C(=O)C(Cc2ccccc2)N(C)C)c1C (centres undefined) | inconclusive: 44.7 µM [inhibitor, single point] | – |
| Cc1c(P(=S)(c2ccccc2)c2ccccc2)[n+]2ccccc2n1C | inactive | – |
| CC(=O)Cc1ccc(OC(C)C)cc1 | inactive | – |
| CCN(CC)S(=O)(=O)c1ccc(N=Cc2c(O)n(-c3ccccc3)c(=O)[nH]c2=O)cc1 | active: 22.4 µM | – |
| O=C1C(=O)c2cccc3cccc1c23 | inconclusive: 37.7 µM [inhibitor, single point] | – |
| CC1CCN(c2nc(NCc3ccco3)nc(N)c2[N+](=O)[O-])CC1 | inconclusive: 25.1 µM [inhibitor, single point] | – |
| CC1Cc2ccccc2N1C(=O)COC(=O)c1ccc(Cl)nc1 (centres undefined) | inconclusive: 1.12 µM [inhibitor, full curve, poor fit] | – |
| COc1ccc(C2SCC(=O)Nc3c2c(C)nn3C2CCOC(C)(C)C2)cc1OC (centres undefined) | inconclusive: 39.8 µM [inhibitor, single point] | – |
| Cc1nonc1OCCNCCNc1ccc([N+](=O)[O-])c2cccnc12 | inconclusive: 22.4 µM [inhibitor, partial curve] | – |
| O=C1NO[C@@H]2CN[C@@H](C(=O)O)[C@H]12 | inactive | – |
| Nc1ccc(Oc2cccc(Oc3ccc(N)cc3)c2)cc1 | inconclusive: 39.8 µM [inhibitor, single point] | – |
| O=C1NC(=O)C(=Cc2ccc(OCCOc3ccc([N+](=O)[O-])cc3)cc2)C(=O)N1 | active: 17.8 µM | – |
| Cc1ccc(S(=O)(=O)NP(=O)(Oc2ccccc2)Oc2ccccc2)cc1 | inconclusive: 22.4 µM [inhibitor, single point] | – |
| COc1ccc(CCNC(=O)c2c(N)n(CCN3CCOCC3)c3nc4ccccc4nc23)cc1OC | inconclusive: 28.2 µM [inhibitor, partial curve] | – |
| Cc1cc(OC(=O)c2cccs2)c2c3c(c(=O)oc2c1)CCCC3 | active: 12.6 µM | – |
| COc1ccc(CN2C(=O)NC(=O)/C(=C/c3ccc([N+](=O)[O-])o3)C2=O)cc1 | active: 17.8 µM | – |
| Cc1ccc(/C=C2\C(=O)NC(=O)N(CCc3ccc(F)cc3)C2=O)o1 | active: 5.01 µM | – |
| O=C(Nc1ccc(F)cc1F)c1cccn(Cc2ccccc2)c1=O | inactive | – |
| CCOC(=O)c1c(N)n(CCN2CCCCC2)c2nc3ccccc3nc12 | inconclusive: 31.6 µM [inhibitor, partial curve] | – |
| COc1ccc(Nc2nc(N3CCN(C)CC3)nc3ccccc23)c(OC)c1 | inconclusive: 39.8 µM [inhibitor, single point] | – |
| COc1ccc(CCNCc2sccc2C)cc1OC | inactive | – |

| Structure (SMILES) | Potency | activity, negative = inhibition |
| --- | --- | --- |
| CC(=O)OC1C[C@@]2(C)C(c3ccoc3)C[C@H]3O[C@@]32[C@@]2(C)C(=O)C(O)=C3C(C)(C)C(=O)C=C[C@]3(C)C12 (some centres undefined) | inactive | – |
| CC(C)N1CCN(c2ccc(O)cc2)CC1 | inconclusive: 25.1 µM [inhibitor, single point] | – |
| CCc1ccc(N2C(=O)NC(=O)/C(=C/c3cccn3CCOc3ccc(C(C)CC)cc3)C2=O)cc1 (centres undefined) | inactive | – |
| CNC(C)Cc1ccccc1OC (centres undefined) | inactive | – |
| CC1CC2OC2/C=C\C=C/C(=O)Cc2c(Cl)c(O)cc(O)c2C(=O)O1 (centres undefined) | active: 22.4 µM | – |
| CC(C)N(CC[C@@](C(N)=O)(c1ccccc1)c1ccccn1)C(C)C | inactive | – |
| CCC(Cl)[N+](=O)[O-] (centres undefined) | inconclusive: 39.8 µM [inhibitor, single point] | – |
| CC1CC2CC(=O)C3CCCN4CCCC2[C@]34C1 (some centres undefined) | inactive | – |
| CC/C=C\C/C=C\C/C=C\C/C=C\C/C=C\CCCC(=O)NC(C)C(=O)O (centres undefined) | inactive | – |
| Cc1c(C(=O)N2CCC3(CC2)OCCO3)oc2ccc(S(=O)(=O)N3CCOCC3)cc12 | inconclusive: 28.2 µM [inhibitor, single point] | – |
| Cc1ccccc1N1C(=O)NC(=O)/C(=C\c2cc(Br)c(N3CCOCC3)o2)C1=O | inconclusive: 20 µM [inhibitor, partial curve] | – |
| O=C(Nc1ccc2ccccc2c1)c1nn(C23CC4CC(CC(C4)C2)C3)cc1Br | inconclusive: 15.8 µM [inhibitor, partial curve] | – |
| COC(=O)c1c(C)n(Cc2ccco2)c2ccc(O)cc12 | active: 20 µM | – |
| Cc1cccc(N2C(=O)NC(=O)/C(=C/c3ccc(N4CCOCC4)cc3)C2=O)c1 | active: 11.2 µM | – |
| CC(=O)c1c(O)c(C)c(O)c(Cc2c(O)c3c(c(C(=O)/C=C/c4ccccc4)c2O)OC(C)(C)C=C3)c1O | active: 17.8 µM and active: 14.1 µM | – |
| CCc1nnc(NC(=O)CSc2ccc(-c3ccco3)nn2)s1 | inconclusive: 1.26 µM [inhibitor, full curve] | – |
| O=C1C2CCCN2C(c2cccnc2)N1c1nccs1 (centres undefined) | inactive | – |
| COC(=O)CCc1nc2c(C#N)c(-c3ccc(Cl)cc3)ccn2n1 | inconclusive: 39.8 µM [inhibitor, single point] | – |
| S=P(Nn1cnnc1)(c1ccc(Br)cc1)c1ccc(Br)cc1 | inconclusive: 39.8 µM [inhibitor, single point] | – |
| CCOC(=O)c1ccccc1N | inconclusive: 22.4 µM [inhibitor, partial curve] | – |
| Cc1ccc2c(C)cc[n+](CCCS(=O)(=O)[O-])c2c1 | inconclusive: 39.8 µM [inhibitor, single point] | – |
| N#CC1(c2ccccc2)CCN(C2CC(=O)N(c3ccc(F)cc3)C2=O)CC1 (centres undefined) | active: 31.6 µM | – |
| COc1cc(C(C#N)N2CCCCC2)ccc1O (centres undefined) | inconclusive: 14.1 µM [inhibitor, partial curve] | – |
| CC(=O)OC1N=C(c2ccccc2)c2ccccc2NC1=O (centres undefined) | inconclusive: 39.8 µM [inhibitor, single point] | – |
| Cc1ccc(Cn2ccc(NC(=O)c3cc(-c4ccco4)on3)n2)cc1 | active: 17.8 µM | – |

| Structure (SMILES) | Potency | activity, negative = inhibition |
| --- | --- | --- |
| O=Cc1cn(Cc2ccccc2F)c2ccccc12 | active: 0.447 µM | – |
| Cc1cc(/C=C2\C(=O)NC(=O)N(c3cccc(F)c3)C2=O)c(C)n1-c1cc(C(=O)O)cc(C(=O)O)c1 | inactive | – |
| COc1cccc(C2=NOC(C(=O)N3CCC4(CC3)OCCO4)C2)c1 (centres undefined) | inconclusive: 39.8 µM [inhibitor, single point] | – |
| COc1cccc(OC)c1C1=NCC(=O)Nc2c1oc1ccc(Br)cc21 | inactive | – |
| CC/C(=N\NC(=O)c1ccccc1)c1c(O)n(Cc2ccccc2)c(=O)[nH]c1=O | inconclusive: 20 µM [inhibitor, partial curve] | – |
| Oc1cc2c(cc1O)[C@H]1c3ccccc3CNC1CC2 (some centres undefined) | inconclusive: 39.8 µM [inhibitor, single point] | – |
| CC(C)(C)c1csc(NC(=O)Nc2ccccc2)n1 | inconclusive: 39.8 µM [inhibitor, single point] | – |
| CCC(C)OC(=O)c1c(N)n(Cc2cccs2)c2nc3ccccc3nc12 (centres undefined) | inconclusive: 31.6 µM [inhibitor, partial curve] | – |
| CC(=O)O.CC(=O)O.[Cd] | active: 12.6 µM | – |
| CC1CC(Cl)CCC1C(=O)OC(C)(C)C (centres undefined) | inactive | – |
| CC(C)(C)c1nc(N2CCN(C(=O)c3ccco3)CC2)c2nnn(Cc3ccccc3Cl)c2n1 | inconclusive: 17.8 µM [inhibitor, partial curve] | – |
| O=C1NC(=S)N(c2ccccc2F)C(=O)/C1=C\c1cccs1 | active: 20 µM | – |
| CCOC(=O)C1(CCc2ccccc2)CCN(Cc2cccc3c2OCO3)CC1 | inconclusive: 28.2 µM [inhibitor, single point] | – |
| CCN1C[C@]2(C)CC[C@H](OC)[C@@]34[C@@H]2[C@H](OC(C)=O)[C@]2(OCO[C@@]25C[C@@H](OC)[C@@H]2C[C@@]3(O)[C@H]5[C@@H]2OC)[C@H]14 | inactive | – |
| C=CC[C@]1(O)CCC2C3CCC4=CCCCC4C3CCC21C (some centres undefined) | inconclusive: 39.8 µM [inhibitor, single point] | – |
| CCSc1nnc([C@@H](N)Cc2c[nH]c3ccccc23)o1 | inconclusive: 39.8 µM [inhibitor, single point] | – |
| COc1ccc(N/N=C/c2c(O)n(-c3ccc(C)c(C)c3)c(=O)[nH]c2=O)cc1 | active: 1.58 µM | – |
| CN1C(=O)C(Cc2cccc3ccccc23)C(=O)N(C)C1=O | inconclusive: 25.1 µM [inhibitor, single point] | – |
| CN(C)C(=O)Cl | inconclusive: 39.8 µM [inhibitor, single point] | – |
| Cc1ccc(-c2ccc(=O)n(CC(=O)N3CCC4(CC3)OCCO4)n2)cc1 | inconclusive: 31.6 µM [inhibitor, single point] | – |
| O=[As](O)(O)c1ccc(N=Nc2ccc([As](=O)(O)O)cc2)cc1 | – | inactive: -3.8% [at 13.5 µM] |
| O=C(O)c1cc[c]([Hg][Cl])cc1 | active: 5.46 µM | – |
| CC(C)CC(C)N (centres undefined) | inconclusive: 39.8 µM [inhibitor, single point] | – |
| O=[N+]([O-])c1ccc(N2CCNCC2)cc1N1CCCCC1 | inconclusive: 28.2 µM [inhibitor, partial curve] | – |
